Experimental data: publication PMC4336329 (PLoS ONE, 2015)
About 14,000 (4.5%) of roughly 310,000 compounds showed an effect of 50% or more. The effect is printed as a negative number. The list shows a part of the results.

target: human ether-à-go-go-related gene (hERG) potassium channel (human, UniProt Q12809); assay: primary screen, population patch clamp on CHO cells stably expressing hERG
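Note: peak tail current of the secondary pulse compared with the same well before compound.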

Sequence of human ether-à-go-go-related gene (hERG) potassium channel (Q12809 whole entry, looked up): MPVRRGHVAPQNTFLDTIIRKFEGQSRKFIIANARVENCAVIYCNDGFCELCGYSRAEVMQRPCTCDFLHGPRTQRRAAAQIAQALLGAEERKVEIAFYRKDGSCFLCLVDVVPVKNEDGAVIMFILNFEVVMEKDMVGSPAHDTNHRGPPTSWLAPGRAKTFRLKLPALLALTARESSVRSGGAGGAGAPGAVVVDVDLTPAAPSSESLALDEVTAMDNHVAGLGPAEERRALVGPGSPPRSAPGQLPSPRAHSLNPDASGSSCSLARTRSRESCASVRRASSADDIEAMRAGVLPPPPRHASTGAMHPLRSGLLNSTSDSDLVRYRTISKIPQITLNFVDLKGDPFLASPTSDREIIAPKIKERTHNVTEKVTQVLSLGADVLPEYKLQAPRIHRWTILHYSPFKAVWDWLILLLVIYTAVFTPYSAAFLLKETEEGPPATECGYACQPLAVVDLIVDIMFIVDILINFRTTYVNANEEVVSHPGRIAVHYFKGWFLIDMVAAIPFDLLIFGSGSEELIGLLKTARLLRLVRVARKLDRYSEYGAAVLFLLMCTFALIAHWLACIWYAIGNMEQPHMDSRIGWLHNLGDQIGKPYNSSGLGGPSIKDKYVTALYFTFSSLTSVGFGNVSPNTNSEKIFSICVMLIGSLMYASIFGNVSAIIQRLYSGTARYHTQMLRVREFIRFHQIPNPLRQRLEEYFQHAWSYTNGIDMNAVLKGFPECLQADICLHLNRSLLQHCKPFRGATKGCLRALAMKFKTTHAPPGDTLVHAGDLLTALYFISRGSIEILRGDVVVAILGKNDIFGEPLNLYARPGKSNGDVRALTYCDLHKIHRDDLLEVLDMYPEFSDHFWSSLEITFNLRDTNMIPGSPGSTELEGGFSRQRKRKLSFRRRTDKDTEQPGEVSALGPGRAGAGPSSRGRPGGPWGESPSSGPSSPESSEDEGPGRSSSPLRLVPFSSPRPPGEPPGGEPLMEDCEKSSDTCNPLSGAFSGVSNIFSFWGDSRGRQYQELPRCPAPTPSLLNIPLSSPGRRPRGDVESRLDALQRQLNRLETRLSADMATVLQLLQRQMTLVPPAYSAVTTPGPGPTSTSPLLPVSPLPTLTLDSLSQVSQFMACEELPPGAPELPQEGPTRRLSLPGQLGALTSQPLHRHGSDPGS

| SMILES | hERG current change (%, negative = inhibition) at 10uM [%] |
| --- | --- |
| S=C1NC2=C(CCCC2)C2(CCCCC2)N1 | 20 |
| Cc1ccc(NS(=O)(=O)c2cc(NC(=O)c3cc(=O)[nH]c(=O)[nH]3)ccc2Cl)c(C)c1 | -1.05 |
| COc1ccc(-c2nn(-c3ccccc3)cc2C2CC(c3cccs3)=NN2C(=O)CCCC(=O)O)cc1 (centres unmarked) | 17.9 |
| O=C(Nc1nnc(-c2ccccc2Cl)s1)C1CCN(S(=O)(=O)c2ccc(Cl)cc2)CC1 | 28.1 |
| C=CCn1c(SCC(=O)Nc2ccc3c(c2)OCO3)nnc1-c1ccccc1 | -34.7 |
| Cc1ccc(S(=O)(=O)Oc2ccccc2/C=C2/SC(=O)NC2=O)cc1 | 30 |
| CCOC(=O)c1cnc2[nH]c3ccccc3n2c1=O | 46.3 |
| CCc1cccc(CC)c1NC(=S)Nc1ccccc1 | 13.4 |
| Cc1c(NC(=O)OCCSc2nc(N(C)C)nc(N(C)C)n2)sc(=S)n1C | 5.97 |
| NC(=O)CC(NC(=O)Cc1ccc(Br)cc1)c1ccc(NCc2ccccn2)c([N+](=O)[O-])c1 (centres unmarked) | 6.99 |
| O=c1c2ccccc2nc2c3ccccc3c(NCCN3CCOCC3)nn12 | -72.2 |
| CC1=NN(c2ccc(C(=O)O)cc2)C(=O)/C1=C\c1ccc(OC(=O)c2cccs2)cc1 | 21 |
| COc1ccc(/C=C2\CCOC2=O)cc1 | -0.536 |
| O=C1c2ccccc2C(=O)N1CCCc1nc2ccccc2c(=O)n1-c1cccnc1 | -39.7 |
| CCN(CC)CCCNc1nc(SC)nc2sc3c(c12)CCN(C)C3 | 11 |
| NS(=O)(=O)c1ccc(CNC(=O)c2sccc2-c2ccccc2)cc1 | 6.45 |
| O=C(Cn1c2ccc(F)cc2c2nc3n(c(=O)c21)CCS3)Nc1ccc(Cl)cc1F | -10.4 |
| Cc1ccc(S(=O)(=O)NCC(=O)OCc2cc(=O)oc3cc(C)ccc23)cc1 | -3.27 |
| Cc1oc2c(C)c3oc(=O)c(CCC(=O)N4CCC(C(=O)NCCC(=O)O)(c5ccccc5)CC4)c(C)c3cc2c1C | 8.02 |
| Cc1ccc(C(=O)NCCc2ccccc2)cc1S(=O)(=O)N1CCOCC1 | -23.4 |
| CC(C)[C@H](NC(=O)N1CCn2c1nc1ccccc12)C(=O)NC1CCCCC1 | -11.3 |
| N#Cc1cccc(CN2CCC(=O)N([C@H](CO)c3ccccc3)CC2)c1 | -4.9 |
| Cc1ccc(CNC(=O)C(c2ccccc2)c2ccccc2)cc1 | -64 |
